# In PubChem BioAssay AID686971 (National Center for Advancing Translational Sciences (NCATS), 2013):
# About 7,500 (2.1%) of roughly 360,000 compounds were called active. The shares of active, inactive and inconclusive entries below differ from those in the screen. Calls follow the shape of the dose curve; as a rule, active = well fitted cell-killing curve with a large enough effect; inconclusive = small, poorly fitted or top-dose-only effect, or effect the other way, or another doubt; inactive = no such curve, though single readings can be large or run the other way. No potency is given beside an inconclusive call; the fits are too rough.
# Assay: qHTS for induction of synthetic lethality in tumor cells producing 2HG: qHTS for the HT-1080-IDH1KD cell line;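 as to activity, negative = toxicity: 0% = DMSO wells and -100% = cell-free medium wells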
# Conditions: HT-1080 IDH1 knockdown viability, ATP luminescence, 48 h; activity, negative = toxicity: at 46.1 µM (top of the series) unless noted
# Method in brief: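 Knockdown cells (IDH1KD HT-1080) received compounds 2 h after plating at 750 cells/well and were kept 48 h at 37 °C in 5% FBS RPMI. A CellTiter-Glo luminescence read gave % activity for curve fitting.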
# Potency is read from the fitted curve at half-maximal effect; tags tell the direction and shape of the fitted curve.
SMILES,Potency,"activity, negative = toxicity"
NC(=O)c1ccccc1NCC(=O)c1ccc(F)cc1,inactive,–
Cc1ccc2[nH]c(=O)c(CN(Cc3ccco3)C(=O)c3ccncc3)cc2c1,"inconclusive [cytotoxic, single point]",–
O=C(N/N=C/c1ccc(Br)s1)c1ccncc1,inactive,–
CC(NC(=O)Nc1ccc(Cl)cc1)c1ccc2c(c1)OCO2 (configuration not stated),"inconclusive [cytotoxic, partial curve]",–
Cc1cccc(NC(=S)N(Cc2ccco2)C(C)c2cccs2)c1 (configuration not stated),inactive,–
CCOC(=O)c1c(C)cc(C)[nH]c1=O,inactive,–
CCOC(=O)c1c(C)[nH]c(C(=O)N/N=C/c2ccc(OC)c(OC)c2)c1C,–,inconclusive: 0% [cytotoxic]
O=C(Nc1ccc(Cl)cc1)C1CCCN(c2ncnc3c2nc2n3CCCCC2)C1 (configuration not stated),"inconclusive [cytotoxic, single point]",–
O=C(N/N=C\c1c(O)ccc2ccccc12)c1ccc(Cn2cccn2)o1,"inconclusive [cytotoxic, full curve]",–
O=C(NCCCN1CCN(c2cccc(Cl)c2)CC1)C1CCC(=O)N1Cc1ccccc1Cl (configuration not stated),"inconclusive [cytotoxic, single point]",–
c1ccc(-c2csc(N3CCN(c4ccccn4)CC3)n2)cc1,"inconclusive [cytotoxic, single point]",–
COc1cccc(Cn2c(Oc3ccccc3)nc3c2c(=O)n(C)c(=O)n3C)c1,inactive,–
CSc1ccc(CN2CCC2(C)C(=O)Nc2ccc(C)c(O)c2)cc1 (configuration not stated),inactive,–
COc1ccc(C(C)(NC(C)=O)c2nc(-c3cccc(C(F)(F)F)c3)cs2)cc1 (configuration not stated),"inconclusive [cytotoxic, single point]",–
COc1ccc(OC)c(C(c2nnnn2C(C)(C)C)N2CCc3ccccc3C2)c1 (configuration not stated),"inconclusive [cytotoxic, single point]",–
CCCn1nc(C(=O)N2CC(=O)Nc3ccccc32)c2ccccc2c1=O,"inconclusive [cytotoxic, single point]",–
Cc1ccc(C(=O)NNC(=O)CSc2nnc(-c3ccccc3)n2Cc2ccccc2)cc1,inactive,–
COc1cc(C(O)c2nc(-c3ccc(F)cc3OC)cs2)ccc1F (configuration not stated),"inconclusive [cytotoxic, single point]",–
CCCC#Cc1ccc2c(c1)O[C@@H](CN(C)Cc1ccc3c(c1)OCO3)[C@H](C)CN([C@@H](C)CO)S2(=O)=O,"inconclusive [cytotoxic, single point]",–
O=c1c2cc(NC(=S)NC3CCN(Cc4ccccc4)CC3)ccc2nc2n1CCCCC2,active: 18.4 µM,–
O=C(N/N=C/c1sc(=O)n(-c2ccccc2)c1Cl)c1ccncc1,"inconclusive [cytotoxic, single point]",–
CCNC(=S)SCCOc1ccccc1C,inactive,–
FC(F)Oc1ccc(NC(=S)NC2CCSc3ccccc32)cc1 (configuration not stated),"inconclusive [cytotoxic, single point]",–
CC(C)c1ccc(NC(=O)c2snc3ccc(Cl)cc23)cc1,"inconclusive [cytotoxic, single point]",–

SMILES,Potency,"activity, negative = toxicity"
CCCS(=O)(=O)NC(=O)C1(C)CCN(C(=O)c2ccc(OC(F)F)cc2)C1 (configuration not stated),"inconclusive [rising, single point]",–
CN(Cc1ccccc1)S(=O)(=O)c1ccc(NC(=S)NC(=O)C2CCCC2)cc1,active: 8.91 µM,–
Nc1nonc1-c1nc2ccccc2n1CC(=O)NC1CCCC1,"inconclusive [cytotoxic, single point]",–
O=C1CCCC2=C1C(c1cccs1)n1nc(SCc3ccccc3)nc1N2 (configuration not stated),"inconclusive [cytotoxic, single point]",–
CSc1cccc(NC(=O)C2CCCN(S(C)(=O)=O)C2)c1 (configuration not stated),inactive,–
Cc1ccc2c(C)c(C(=O)Nc3cccnc3)oc2c1,"inconclusive [cytotoxic, single point]",–
Cc1ccc(C)c(-n2nnnc2Sc2nnnn2-c2ccccc2)c1,active: 16.4 µM,–
CSc1nc2n(n1)C(c1ccccn1)C1=C(CC(C)(C)CC1=O)N2 (configuration not stated),inactive,–
COc1ccc(-c2cc(NC=O)c3ncc(-c4cc(OC)c(OC)c(OC)c4)n3c2)cc1,"inconclusive [cytotoxic, full curve]",–
CCCc1cc(=O)n2nc(N3CCC(C(=O)N4CCN(c5ccc(OC)cc5)CC4)CC3)sc2n1,active: 13 µM,–
CCN(CC)S(=O)(=O)c1ccc(NC(=O)c2ccc(OCC3CCCO3)cc2)cc1 (configuration not stated),"inconclusive [cytotoxic, single point]",–
CC1CCCCC1NC(=O)/C(C#N)=C/c1ccccc1F (configuration not stated),active: 18.4 µM,–
C/C(N)=C(/C#N)C(=O)CSc1nnc(SCc2ccc(Cl)cc2)s1,active: 20.6 µM,–
Nc1ccc(N(c2ccccc2)c2ccc(N)cc2)cc1,active: 20.6 µM,–
COc1cccc(NC(=O)Nc2ccc(C(C)(C)C)cc2)c1,"inconclusive [cytotoxic, partial curve]",–
COc1cc(NC(=O)CN(c2cc(C)cc(C)c2)S(=O)(=O)c2c(C)noc2C)cc(OC)c1,inactive,–
Cn1cc(CN2CCCC(C(=O)c3cc(F)ccc3F)C2)c2ccccc21 (configuration not stated),"inconclusive [cytotoxic, partial curve]",–
COCCCNC(=S)NC1CC2CCCC(C1)N2Cc1ccco1 (configuration not stated),"inconclusive [rising, single point]",–
O=C(NCCCc1ccccc1)C1CCN(c2nnc(-n3cccc3)s2)CC1,inactive,–
CC1(Cc2ccccc2Cl)C(=O)Nc2ccc(OC(F)(F)F)cc21 (configuration not stated),active: 29.1 µM,–
COc1cc(CNCCc2c[nH]c3ccccc23)ccc1OCc1ccc(F)cc1,"inconclusive [cytotoxic, single point]",–
CCn1nc([N+](=O)[O-])c(C(C#N)c2nc3cc(C(F)(F)F)ccc3s2)c(Cl)c1=O (configuration not stated),active: 0.316 µM,–
COc1ccccc1/C=C/C=C(\C#N)C(=O)NC(C)c1ccccc1 (configuration not stated),"inconclusive [cytotoxic, single point]",–
